Structures can show the parent of a compound that is named as a salt. ± gives the standard error. Hit rate of the full screen: of about 1,300 compounds, about 130 (10%) showed an effect of 50% or more. The list shows a part of the results, in another mix than the full data.

The test system of this assay is Trichoderma virens ATCC 9645. The experiment in a line: growth yield (OD600) with compound + IPBC relative to untreated control; higher = less growth inhibition. Particulars: compound concentration: 100 uM, IPBC concentration: 200 ng/ml. The gist of the method: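 Plates were read for OD600 at 40 h and 72 h after Trichoderma virens ATCC 9645 spores (15,000 spores ml^−1 in potato dextrose broth) were grown at 30 °C with library compounds at 100 μM final, with or without a biocide at 200 ng ml^−1. Growth is stated relative to the control with neither agent, as the mean of duplicate screens.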

For `CNC(C)CCC=C(C)C` (stereo not given) [Isometheptene mucate] + CCCCNC(=O)OCC#CI [3-iodo-2-propynyl butylcarbamate (IPBC)], the growth yield by setting is: (40 h) 101 ± 16%; (72 h) 101 ± 8.4%. For the compound `O=C(COc1ccc(Cl)cc1)N1CCN(Cc2ccc3c(c2)OCO3)CC1` [Fipexide hydrochloride] + CCCCNC(=O)OCC#CI [3-iodo-2-propynyl butylcarbamate (IPBC)], the growth yield reads like this: (40 h) 64 ± 1.1%; (72 h) 85.2 ± 1.9%.

As to `CN(Cc1cnc2nc(N)nc(N)c2n1)c1ccc(C(=O)N[C@@H](CCC(=O)O)C(=O)O)cc1` (racemic) [Amethopterin (R,S)] + CCCCNC(=O)OCC#CI [3-iodo-2-propynyl butylcarbamate (IPBC)], the growth yield runs as follows: (40 h) 88.2 ± 12%; (72 h) 96.3 ± 7.3%. As for `Cc1ccsc1/C=C/C1=NCCCN1C` [Morantel tartrate] + CCCCNC(=O)OCC#CI [3-iodo-2-propynyl butylcarbamate (IPBC)], the growth yield was 97.5 ± 3.2% (40 h) and 98.4 ± 1.9% (72 h).

Consider `CN(C)c1ccc(O)c2c1C[C@H]1C[C@H]3[C@H](N(C)C)C(O)=C(C(N)=O)C(=O)[C@@]3(O)C(O)=C1C2=O` [Minocycline hydrochloride] + CCCCNC(=O)OCC#CI [3-iodo-2-propynyl butylcarbamate (IPBC)], for which the growth yield (40 h) was determined as 58.1 ± 2.2% and the growth yield (72 h) came to 84.6 ± 4.7%.

With `CN(C)[C@@H]1C(O)=C(C(N)=O)C(=O)[C@@]2(O)C(O)=C3C(=O)c4c(O)cccc4[C@@](C)(O)[C@H]3[C@H](O)[C@@H]12` [Oxytetracycline dihydrate] + CCCCNC(=O)OCC#CI [3-iodo-2-propynyl butylcarbamate (IPBC)], the growth yield by setting is: (40 h) 83.5 ± 3.8%; (72 h) 72.7 ± 2.2%. For `CC/C(=C(/CC)c1ccc(O)cc1)c1ccc(O)cc1` [Diethylstilbestrol] + CCCCNC(=O)OCC#CI [3-iodo-2-propynyl butylcarbamate (IPBC)] the same measures were 85 ± 15% and 87.9 ± 10%.

For the compound `CSc1ccc2c(c1)N(CCC1CCCCN1C)c1ccccc1S2` (stereo not given) [Thioridazine hydrochloride] + CCCCNC(=O)OCC#CI [3-iodo-2-propynyl butylcarbamate (IPBC)], the growth yield runs as follows: (40 h) 3.81 ± 0.64%; (72 h) 2.94 ± 0.21%.

With `Cc1cc(-c2ccccc2)nnc1NCCN1CCOCC1` [Minaprine dihydrochloride] + CCCCNC(=O)OCC#CI [3-iodo-2-propynyl butylcarbamate (IPBC)], the growth yield runs as follows: (40 h) 88.2 ± 1.8%; (72 h) 92.3 ± 2.1%.

In the case of `NC(N)=Nc1nc(CSCC/C(N)=N/S(N)(=O)=O)cs1` [Famotidine] + CCCCNC(=O)OCC#CI [3-iodo-2-propynyl butylcarbamate (IPBC)], the growth yield by setting is: (40 h) 84.7 ± 3%; (72 h) 93.8 ± 3.6%. For `COc1cc(-c2ccc(=O)[nH]n2)ccc1OC(F)F` [Zardaverine] + CCCCNC(=O)OCC#CI [3-iodo-2-propynyl butylcarbamate (IPBC)], the growth yield (40 h) is 105 ± 3% and the growth yield (72 h) was determined as 103.6 ± 0.42%. Regarding `COc1cc(NC(C)CCCN)c2ncccc2c1` (stereo not given) [Primaquine diphosphate] + CCCCNC(=O)OCC#CI [3-iodo-2-propynyl butylcarbamate (IPBC)], the growth yield by setting is: (40 h) 73.7 ± 11%; (72 h) 117.7 ± 1.1%.

For the compound `CCCCNc1c(C(=O)OCC)c(C)nc2c1cnn2CC` [Tracazolate hydrochloride] + CCCCNC(=O)OCC#CI [3-iodo-2-propynyl butylcarbamate (IPBC)], the growth yield (40 h) was found to be 21.9%. Consider `CCCOc1ccc(C(=O)OCCN(CC)CC)cc1N` [Proparacaine hydrochloride] + CCCCNC(=O)OCC#CI [3-iodo-2-propynyl butylcarbamate (IPBC)], for which the growth yield (40 h) was 106 ± 14% and the growth yield (72 h) was found to be 104 ± 9.9%. As to `CC(CN(C)C)C(C)(O)Cc1ccc(Cl)cc1` (stereo not given) [Clobutinol hydrochloride] + CCCCNC(=O)OCC#CI [3-iodo-2-propynyl butylcarbamate (IPBC)], the growth yield by setting is: (40 h) 92.8 ± 6.7%; (72 h) 95.1 ± 3%.

Regarding `CC[C@@H](CO)NCCN[C@@H](CC)CO` [Ethambutol dihydrochloride] + CCCCNC(=O)OCC#CI [3-iodo-2-propynyl butylcarbamate (IPBC)], the growth yield stood at 87.05 ± 0.64% (40 h) and 91.6 ± 0.94% (72 h). In the case of `CC(=O)OCC(=O)[C@@]1(OC(C)=O)[C@@H](C)C[C@H]2[C@@H]3C[C@H](F)C4=CC(=O)C=C[C@]4(C)[C@@]3(F)[C@@H](O)C[C@@]21C` [Diflorasone Diacetate] + CCCCNC(=O)OCC#CI [3-iodo-2-propynyl butylcarbamate (IPBC)], the growth yield was found to be 89.6 ± 5.1% (40 h) and 93.8 ± 2.9% (72 h).

`C=CCOC(Cn1ccnc1)c1ccc(Cl)cc1Cl` (stereo not given) [Enilconazole] + CCCCNC(=O)OCC#CI [3-iodo-2-propynyl butylcarbamate (IPBC)]: the growth yield is, setting by setting: (40 h) 3.34 ± 0.16%; (72 h) 2.94 ± 0.21%. For `O=c1[nH]c2ccccc2n1C1CCN(CCCC(c2ccc(F)cc2)c2ccc(F)cc2)CC1` [Pimozide] + CCCCNC(=O)OCC#CI [3-iodo-2-propynyl butylcarbamate (IPBC)] the same measures were 111 ± 8.3% and 136 ± 2.7%.

In the case of `C#C[C@]1(O)CC[C@H]2[C@@H]3CCC4=CC(=O)CC[C@@H]4[C@H]3CC[C@@]21CC` [Norgestrel-(-)-D] + CCCCNC(=O)OCC#CI [3-iodo-2-propynyl butylcarbamate (IPBC)], the growth yield is 89 ± 16% (40 h) and 94.3 ± 13% (72 h). For the compound `N=C(N)NCCN1CCCCCCC1` [Guanethidine sulfate] + CCCCNC(=O)OCC#CI [3-iodo-2-propynyl butylcarbamate (IPBC)], the growth yield (40 h) is 81.3 ± 4.1% and the growth yield (72 h) stood at 90.2 ± 4.4%.

As to `CC1(C)[C@@H](OC(=O)CCC(=O)O)CC[C@]2(C)[C@H]3C(=O)C=C4[C@@H]5C[C@@](C)(C(=O)O)CC[C@]5(C)CC[C@@]4(C)[C@]3(C)CC[C@@H]12` [Carbenoxolone disodium salt] + CCCCNC(=O)OCC#CI [3-iodo-2-propynyl butylcarbamate (IPBC)], the growth yield by setting is: (40 h) 96.3 ± 18%; (72 h) 96 ± 11%. For `CC(CN(C)C)CN1c2ccccc2Sc2ccccc21` (stereo not given) [Trimeprazine tartrate] + CCCCNC(=O)OCC#CI [3-iodo-2-propynyl butylcarbamate (IPBC)] the same measures were 71.5 ± 3.8% and 92 ± 3.9%. For `CC(=O)N(CC(O)CN(C(C)=O)c1c(I)c(C(=O)NCC(O)CO)c(I)c(C(=O)NCC(O)CO)c1I)c1c(I)c(C(=O)NCC(O)CO)c(I)c(C(=O)NCC(O)CO)c1I` (stereo not given) [Iodixanol] + CCCCNC(=O)OCC#CI [3-iodo-2-propynyl butylcarbamate (IPBC)] the same measures were 99.6 ± 15% and 98.4 ± 10%. As to `c1ccc(CN(CC2=NCCN2)c2ccccc2)cc1` [Antazoline hydrochloride] + CCCCNC(=O)OCC#CI [3-iodo-2-propynyl butylcarbamate (IPBC)], the growth yield reads like this: (40 h) 82.76 ± 0.79%; (72 h) 94.28 ± 0.94%. For `CN(C)CC/C=C1/c2ccccc2COc2ccc(CC(=O)O)cc21` [Olopatadine hydrochloride] + CCCCNC(=O)OCC#CI [3-iodo-2-propynyl butylcarbamate (IPBC)] the same measures were 86.1 ± 6.7% and 91.5 ± 4.2%. Consider `C=CCSCC1Nc2cc(Cl)c(S(N)(=O)=O)cc2S(=O)(=O)N1` (stereo not given) [Althiazide] + CCCCNC(=O)OCC#CI [3-iodo-2-propynyl butylcarbamate (IPBC)], for which the growth yield amounted to 98.16 ± 0.32% (40 h) and 96.7 ± 0.21% (72 h). Take `c1ccc(CNc2ncnc3nc[nH]c23)cc1` [Aminopurine, 6-benzyl] + CCCCNC(=O)OCC#CI [3-iodo-2-propynyl butylcarbamate (IPBC)]: the growth yield by setting is: (40 h) 89 ± 1.9%; (72 h) 94.08 ± 0.32%. For `CN1Cc2c(N)cccc2C(c2ccccc2)C1` (stereo not given) [Nomifensine maleate] + CCCCNC(=O)OCC#CI [3-iodo-2-propynyl butylcarbamate (IPBC)] the same measures were 90.9 ± 5.1% and 98.4 ± 3.6%. For `CC(C)(O)c1ccccc1CC[C@@H](SCC1(CC(=O)O)CC1)c1cccc(/C=C/c2ccc3ccc(Cl)cc3n2)c1` [Montelukast] + CCCCNC(=O)OCC#CI [3-iodo-2-propynyl butylcarbamate (IPBC)] the same measures were 131 ± 5.9% and 120 ± 6%.

In the case of `CCOC(=O)[C@@](C)(N)Cc1ccc(O)c(O)c1` [Methyldopate hydrochloride] + CCCCNC(=O)OCC#CI [3-iodo-2-propynyl butylcarbamate (IPBC)], the growth yield (40 h) was 110 ± 6% and the growth yield (72 h) was found to be 106 ± 6.2%. For `O=C(c1ccccc1)c1ccc2n1CCC2C(=O)O` (stereo not given) [Ketorolac tromethamine] + CCCCNC(=O)OCC#CI [3-iodo-2-propynyl butylcarbamate (IPBC)] the same measures were 78.8 ± 3.2% and 86 ± 2.9%. For `COc1c(N2CCNC(C)C2)c(F)cc2c(=O)c(C(=O)O)cn(C3CC3)c12` (stereo not given) [Gatifloxacin] + CCCCNC(=O)OCC#CI [3-iodo-2-propynyl butylcarbamate (IPBC)] the same measures were 106 ± 4.5% and 101 ± 4.3%. As for `C[C@]12CC[C@@H](O)C[C@H]1CC[C@@H]1[C@@H]2CC[C@]2(C)C(=O)CC[C@@H]12` [3-alpha-Hydroxy-5-beta-androstan-17-one] + CCCCNC(=O)OCC#CI [3-iodo-2-propynyl butylcarbamate (IPBC)], the growth yield was determined as 72.4 ± 0.95% (40 h) and 84 ± 1.1% (72 h). For `C#CCN(C)[C@H](C)Cc1ccccc1` [Selegiline hydrochloride] + CCCCNC(=O)OCC#CI [3-iodo-2-propynyl butylcarbamate (IPBC)] the same measures were 92.3 ± 11% and 93.8 ± 6.5%. Take `CO/N=C(\C(=O)N[C@@H]1C(=O)N2C(C(=O)OC(C)OC(C)=O)=C(COC(N)=O)CS[C@H]12)c1ccco1` (stereo not given in full) [Cefuroxime axetil] + CCCCNC(=O)OCC#CI [3-iodo-2-propynyl butylcarbamate (IPBC)]: the growth yield is, setting by setting: (40 h) 92.1 ± 7.3%; (72 h) 92.2 ± 2.4%. For `COc1ccccc1OCC(O)COC(N)=O` (stereo not given) [Methocarbamol] + CCCCNC(=O)OCC#CI [3-iodo-2-propynyl butylcarbamate (IPBC)] the same measures were 85.5 ± 2.9% and 95.3 ± 1.8%. For `Cc1cc(N)c2ccccc2[n+]1CCCCCCCCCC[n+]1c(C)cc(N)c2ccccc21` [Dequalinium dichloride] + CCCCNC(=O)OCC#CI [3-iodo-2-propynyl butylcarbamate (IPBC)] the same measures were 3.81% and 2.94%.

For the origin of these results see the supplement of paper PMC8007513.
